About 310 (0.076%) of roughly 410,000 compounds were called active. This list was built around the results that the source calls inconclusive (neither active nor inactive); the mix of calls is not that of the screen. Calls come from the whole dose curve; as a rule, active = well fitted curve in the direction sought with a large enough effect; inconclusive = small, poorly fitted or top-dose-only effect; inactive = flat fitted curve, though single readings scatter. A potency beside an inconclusive call is a rough fit, not a confirmed value.
Biological target: DNA dC->dU-editing enzyme APOBEC-3G (Homo sapiens) (UniProt Q9HC16)
Assay: qHTS for Inhibitors of Vif-A3G Interactions: qHTS; note: nearly all actives have a fitted effect of over 60% in size
Conditions: HeLa A3G-eYFP + Vif (tagged APOBEC3G with the HIV-1 protein that degrades it), YFP fluorescence, overnight; series mostly up to 46.1 µM
Summary of the method: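 HeLa cells stably expressing Vif and C-terminally eYFP-tagged A3G, seeded overnight at 37 deg C, then exposed to compound by pintool overnight at 37 deg C. Rise in yellow fluorescence (Ex 488/Em 500-530, Acumen) marks blocked Vif-driven A3G degradation.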
Potency is the fitted concentration of half-maximal effect; tags give direction and shape of the fitted curve.

Chain of UniProt Q9HC16 (Q9HC16 whole entry, looked up): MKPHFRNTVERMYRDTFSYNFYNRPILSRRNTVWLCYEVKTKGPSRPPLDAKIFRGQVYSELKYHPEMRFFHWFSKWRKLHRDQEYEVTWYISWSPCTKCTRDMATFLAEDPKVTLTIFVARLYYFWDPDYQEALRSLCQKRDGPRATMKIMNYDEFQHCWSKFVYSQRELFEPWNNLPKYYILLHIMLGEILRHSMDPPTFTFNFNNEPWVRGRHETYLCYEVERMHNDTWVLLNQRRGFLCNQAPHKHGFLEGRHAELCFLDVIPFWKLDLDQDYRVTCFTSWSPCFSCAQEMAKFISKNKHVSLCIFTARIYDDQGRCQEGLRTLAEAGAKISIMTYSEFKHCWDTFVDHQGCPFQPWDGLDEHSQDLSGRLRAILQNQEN

SMILES	Potency
COc1ccc(CNC(=O)C/C(C)=N/NC(=O)COc2ccc(C)cc2Br)cc1	inconclusive: 22.4 µM [inhibitor, single point]
Cc1ccc2c(c1)C(=O)C(=O)N2Cc1ccc(Br)cc1	inconclusive: 28.2 µM [inhibitor, single point]
COc1ccc(-n2cc(C(=O)OCc3ccc(F)c(F)c3)c3ccccc3c2=O)cc1	inactive
CN(C)C(=O)c1cc(C(=O)c2ccccc2C(F)(F)F)c[nH]1	inactive
Cn1cccc1/C=C1\CC(C(C)(C)C)C/C(=C\c2cccn2C)C1=O (stereo not drawn)	active: 7.94 µM
CN(C(=O)COC(=O)c1nc(Cl)c(Cl)c(Cl)c1Cl)C1CCS(=O)(=O)C1 (stereo not drawn)	inconclusive: 28.2 µM [inhibitor, single point]
CCCCC1C(=O)CC[C@H]2[C@@H]1CC(=O)[C@@H]2C/C=C\CCCC(=O)O (stereo partly drawn)	inconclusive: 35.5 µM [inhibitor, single point]
O=[N+]([O-])c1ccc(/C=N/n2c(CO)nc3ccccc32)s1	inconclusive: 7.94 µM [inhibitor, partial curve, poor fit]
C/C(=N\NC(=O)c1ccc(Cl)cc1)c1cccs1	inactive
COc1cc2c(cc1OC)C1=CC(=O)C(=O)N1C(C)(C)C2	active: 7.08 µM
O=C(Nc1ccccc1)c1ccc(-c2ccc(Br)cc2)o1	inactive
Cc1cc(C)c(S(=O)(=O)Nc2cc(SCC(=O)O)c(O)c3ccccc23)cc1C	inconclusive: 22.4 µM [inhibitor, single point]
COc1ccc(OC)c(C2C(C#N)=C(N)Oc3cc(N)ccc32)c1 (stereo not drawn)	inconclusive: 15.8 µM [inhibitor, single point]
N#Cc1c(N2CCOCC2)nc(N2CCCCC2)c2c1CCN(C1CCCCC1)C2	inactive
COc1cc(/C=C/C(=O)OCC(=O)NCc2ccc(F)cc2)ccc1O	inconclusive: 11.2 µM [inhibitor, partial curve, poor fit]
OC(COC(c1ccccc1)c1ccccc1)CN1CCc2ccccc2C1 (stereo not drawn)	inactive
CCc1ccc2c(c1)NC(=O)C2(C)Cc1ccccc1C#N (stereo not drawn)	inconclusive: 25.1 µM [inhibitor, single point]
O=C(Nc1ccc2c(c1)OCCO2)C(=O)c1c[nH]c2ccccc12	inconclusive: 2.24 µM [inhibitor, full curve, poor fit]
CCCCCC(O)(CCN1CCCCC1)c1ccc(OCC)cc1 (stereo not drawn)	inactive
CCN1C/C(=C\c2cccc([N+](=O)[O-])c2)C(=O)/C(=C/c2cccc([N+](=O)[O-])c2)C1	inconclusive: 0.562 µM [inhibitor, full curve, poor fit]
COc1ccc(/C=N/NC(=O)c2cccnc2)cc1COc1ccc([N+](=O)[O-])c(C)c1	inconclusive: 3.16 µM [inhibitor, partial curve, poor fit]
O=C/C=C/c1c(-c2ccccc2)cc2oc3ccccc3cc1-2	inconclusive: 35.5 µM [inhibitor, single point]
C=C1C(=O)[C@]23C[C@H]1CC[C@H]2[C@]1(C)[C@@H](OC(C)=O)CC[C@@](C)(C(=O)O)[C@H]1C[C@@H]3OC(C)=O	inconclusive: 3.98 µM [inhibitor, single point]

SMILES	Potency
COc1ccc(/C=C/C(=O)c2ccccc2)cc1Cn1nnc2ccccc21	inconclusive: 17.8 µM [inhibitor, single point]
Cc1ccc(CN2[C@H]3CCCC[C@@H]3OCCS2(=O)=O)cc1	inactive
COc1ccc(NS(=O)(=O)c2cc(Br)cc3c2N(C(C)=O)CC3)cc1	inconclusive: 2.82 µM [inhibitor, full curve]
CSc1nsc(/C=C/Nc2ccc(F)cc2F)c1C#N	inconclusive: 11.2 µM [inhibitor, partial curve]
CC1=CS(=O)(=O)CC1Sc1nc2ccccc2[nH]1 (stereo not drawn)	inactive
Cc1cccc(-c2ncc(CN3CCN(C4CCCC4)C(CCO)C3)cn2)c1 (stereo not drawn)	inactive
CN(Cc1ccccc1)c1nc(N)nc(Cl)c1C=O	inconclusive: 28.2 µM [inhibitor, single point]
Cc1ccc(C(=O)NNC(=O)C(C)Sc2nc(N)cc(N)n2)cc1 (stereo not drawn)	inactive
N#C/C(=C\c1ccccn1)c1nc2ccccc2s1	inconclusive: 2.82 µM [inhibitor, partial curve, poor fit]
N#CC(C#N)=C1C=CC=CN1/C(=C\c1ccco1)C(=O)c1ccccc1	inconclusive: 7.08 µM [inhibitor, partial curve, poor fit]
Cc1cccc(C2NC(=O)c3ccccc3N2)c1 (stereo not drawn)	inconclusive: 7.08 µM [inhibitor, partial curve]
COc1cccc(N=c2oc3ccccc3cc2-c2nc3ccccc3[nH]2)c1	inconclusive: 25.1 µM [inhibitor, single point]
Cc1cc(=O)oc(C)c1C(=O)Nc1ccc2ncccc2c1	inconclusive: 22.4 µM [inhibitor, single point]
O=C(NC(NC(=S)Nc1c(Cl)cccc1Cl)C(Cl)(Cl)Cl)c1cccc([N+](=O)[O-])c1 (stereo not drawn)	inconclusive: 20 µM [inhibitor, single point]
Cn1c2ccccc2c(=O)c2cc(C#Cc3cccc(N)c3)ccc21	inactive
COc1cccc(C(=O)NCCN2CCN(c3ccccc3)CC2)c1	inactive
c1cncc(CSc2ccc(-c3ccc4c(c3)OCO4)nn2)c1	inactive
CN(C)c1ccc(/C=C/c2cc(N(C)C)nc3ccccc23)cc1	inconclusive: 11.2 µM [inhibitor, partial curve, poor fit]
Cc1cc(C(=O)N/N=C/c2ccco2)c2ccccc2n1	inconclusive: 25.1 µM [inhibitor, single point]
S=C(c1ccc2c(c1)OCO2)N1CCN(c2cccc(Cl)c2)CC1	inconclusive: 1.41 µM [inhibitor, partial curve, poor fit]
COc1ccc(NC(=O)C2Cc3cccc(OC)c3O/C2=N\O)cc1 (stereo not drawn)	inconclusive: 11.2 µM [inhibitor, single point]
O=c1c(Br)ccc(Br)cc1Br	inconclusive: 1.78 µM [inhibitor, partial curve, poor fit]
COc1ccc(CNC(=O)Cc2ccc(NC(=O)C3=C(C)OCCS3)cc2)cc1	inconclusive: 2.82 µM [inhibitor, full curve]

SMILES	Potency
Cc1nc(C)c(-c2csc(Nc3cccc(O)c3)n2)s1	inconclusive: 35.5 µM [inhibitor, single point]
O=C(N/N=C/c1cc(Br)c(Br)o1)c1cc2ccccc2o1	inactive
O=C(Nc1ccc(N2CCOCC2)cc1)c1ccncc1	inactive
O=C(NCc1ccc2c(c1)OCO2)c1cc([N+](=O)[O-])ccc1N1CCCCC1	inconclusive: 1.26 µM [inhibitor, full curve]
COc1ccc(C2C(O)C(c3c[nH]c4ccccc34)=NN2C(=O)CCl)cc1 (stereo not drawn)	inconclusive: 2.51 µM [inhibitor, partial curve, poor fit]
CC(NC(=O)Cn1ncc(Cl)c(Cl)c1=O)C12CC3CC(CC(C3)C1)C2 (stereo not drawn)	inconclusive: 3.55 µM [inhibitor, single point]
COc1cc(C(=O)OCC#N)ccc1OCc1c(C)noc1C	inconclusive: 22.4 µM [inhibitor, single point]
CC(C)c1nc(NCc2ccccc2)c(C#N)c2c1CCCC2	inconclusive: 20 µM [inhibitor, single point]
Cc1c(C)n(C)c2ccc(C(=O)Nc3cccc4ccccc34)cc12	inconclusive: 11.2 µM [inhibitor, partial curve, poor fit]
OCC1OC(Oc2c[nH]c3ccccc23)C(O)C(O)C1O (stereo not drawn)	inactive
CC1C(=O)N2CCCc3cc(NC(=O)C(=O)NCCc4ccc(F)cc4)cc1c32 (stereo not drawn)	inconclusive: 28.2 µM [inhibitor, single point]
Cc1ccc(C(=O)n2nc(C)c(S(=O)(=O)N3CCOCC3)c2C)cc1	inactive
Cc1cc2nc(-c3ccc(SCC(=O)Nc4ccc5c(c4)OCCO5)nc3)[nH]c2cc1C	inconclusive: 35.5 µM [inhibitor, single point]
COc1cc(/C=C/C(=O)c2ccc([N+](=O)[O-])o2)ccc1O	inconclusive: 3.55 µM [inhibitor, full curve]
Cc1nc2c(sc3nc4c(cc32)COC(C)(C)C4)c(=O)n1CC(=O)NCc1ccco1	inconclusive: 7.08 µM [inhibitor, partial curve]
Cc1ccc(CSc2nc(-c3cccs3)ccc2C#N)cc1	inconclusive: 7.08 µM [inhibitor, partial curve, poor fit]
CCCC(=O)Nc1ccc2c(c1)nc(CN1CCN(C(=O)OCC)CC1)n2CC	inconclusive: 11.2 µM [inhibitor, partial curve, poor fit]
Cn1c(-c2ccccc2)cnc1NCc1ccc(-c2ccccc2)cc1	inconclusive: 35.5 µM [inhibitor, single point]
CCN(CC)CCNC(=O)CSc1c2c(nc3cc(Cl)ccc13)CCCC2	inconclusive: 12.6 µM [inhibitor, single point]
CCCCOc1ccc(-c2nnn(CC(=O)NCc3ccco3)n2)cc1	inconclusive: 3.16 µM [inhibitor, partial curve, poor fit]
CC(=O)Nc1cccc(-c2ccnc3c2CC(C(=O)NCC2CCOCC2)O3)c1 (stereo not drawn)	inconclusive: 25.1 µM [inhibitor, single point]
CCOC(=O)c1nc(-c2ccc3c(c2)OCO3)[nH]c1C	inconclusive: 17.8 µM [inhibitor, single point]

Reference: PubChem BioAssay AID602310 (National Center for Advancing Translational Sciences (NCATS), 2012)
